Source: publication PMC3760383 (Structure (London, England : 1993), 2011)

Target: T1, His-tagged IFI16 HIN-A domain (residues 192–393) (human, UniProt Q16666-2 192-393)
T1 sequence (looked up): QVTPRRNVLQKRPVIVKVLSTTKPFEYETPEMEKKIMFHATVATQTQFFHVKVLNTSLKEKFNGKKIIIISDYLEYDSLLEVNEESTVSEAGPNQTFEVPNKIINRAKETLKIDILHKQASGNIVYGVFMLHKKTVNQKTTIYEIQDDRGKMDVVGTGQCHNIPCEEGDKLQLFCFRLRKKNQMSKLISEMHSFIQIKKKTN
Assay: pull-down

binding result: binds
B1: GST-p53 C terminus with the tetramerization domain ([…]) (domain or fragment)
chain: not shown
